Measured values taken from PubChem BioAssay AID445 (National Center for Advancing Translational Sciences (NCATS), 2006).
The whole screen tested about 110,000 compounds, of which about 40 (0.04%) were called active. The shares of active, inactive and inconclusive entries below differ from those in the screen. The call rests on the fitted dose curve; in most records, active means well fitted curve in the direction sought with a large enough effect in the signal ratio (not every such curve was filed as active); inconclusive means small, poorly fitted or top-dose-only effect, or a change in a side signal; inactive means flat fitted curve, though single readings scatter; the % refers to the signal ratio. Potencies beside an inconclusive call are fits to weak or partial responses and may not hold up.

experiment: IkB Signaling; settings: ABC-DLBCL IkBa-CBG/CBR dual luciferase ratio (green luciferase fused to IkBa over red control in OCI-Ly3 lymphoma cells), 4 h; IkBa stabilization activation: at 57.1 µM (top of the series), scaled: untreated 0%, proteasome inhibitor 100% unless noted;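 on IkBa stabilization activation: 0% = basal untreated cells and 100% = reference inhibitor full response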
Summary of the method: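 Luminescence ratio of IκBα-fused green versus native red beetle luciferase in OCI-Ly3 cells, 4 h post-doxycycline with compound; red signal alone, scaled from basal (0%) to zero light (-100%), flagged nonspecific or cytotoxic effects.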
Potency means the concentration at half of the fitted maximal effect.

Row | SMILES | IkBa stabilization activation | Potency
1 | c1ccc(COc2ccc(OCCOCCn3cncn3)cc2)cc1 | inconclusive: 3.44% [signal inhibitor] | 
2 | CCc1ccccc1N1CC(c2nc3ccccc3n2CCCOc2ccc(Cl)cc2)CC1=O (stereo not given) | inconclusive: -2.45% [signal inhibitor] | 
3 | CCNc1ncc2nc(-c3cn(C)c4ccccc34)c(=O)n(CCC#N)c2n1 | inactive: 0.914% [at 11.4 µM, scaled: untreated 0%, proteasome inhibitor 100%] | 
4 | COc1ccc(CCNC(=O)CCc2c(C)nc3c(c(C)nn3-c3ccc(C)c(C)c3)c2C)cc1OC | inconclusive: -0.853% [signal inhibitor] | 
5 | COc1ccccc1CNC(=O)c1cc2cc3ccc(Cl)cc3nc2o1 | inactive: -2.26% | 
6 | Cc1cc(C(=O)COc2ccc(-c3nnco3)cc2)c(C)n1Cc1ccccc1 | inconclusive: 6.92% [signal inhibitor] | 
7 | COc1ccccc1OCCSc1nc(-c2ccc(C(C)(C)C)cc2)nc2cc(=O)[nH]n12 | inconclusive: 6.75% [signal inhibitor] | 
8 | COCCNC(=O)C(C#N)c1nc2ccccc2nc1N1CCCCCC1 (stereo not given) |  | inconclusive: 15.8 µM [signal inhibitor, partial curve]
9 | Cc1ccc2c(c1)nnn2C1CCN(S(=O)(=O)c2ccc(C(=O)N3CC(C)CC(C)C3)cc2)CC1 (stereo not given) | inconclusive: 3.37% [signal inhibitor] | 
10 | Cc1cc(Cl)ccc1NC(=O)c1cccc(NC(=O)N2CCSc3ncccc32)c1 | inconclusive: 1.14% [signal inhibitor] | 
11 | O=C(CSC1=Nc2ccccc2C2=NC(CCC(=O)NC3CCCCC3)C(=O)N12)Nc1cccc(C(F)(F)F)c1 (stereo not given) | inconclusive: 18.4% [signal inhibitor] | 
12 | C=C[C@@]1(C)C=C2CC[C@@H]3[C@](C)(CCC[C@@]3(C)C(=O)O)[C@H]2CC1 | inactive: 0.117% [at 11.4 µM, scaled: untreated 0%, proteasome inhibitor 100%] | 
13 | CCn1c(COc2ccccc2)nnc1SCC(=O)CC(=O)Nc1ccccc1OC | inconclusive: 6.38% [signal inhibitor] | 
14 | CCOC(=O)CCc1c(C)nc2cc(-c3cc(OC)cc(OC)c3)[nH]n2c1=O | inconclusive: 0.806% [signal inhibitor] | 
15 | O=C(O)C1CCN(C(=O)COc2ccc3c4c(c(=O)oc3c2)CCC4)CC1 |  | inconclusive: 15.8 µM [signal inhibitor, partial curve]
16 | COc1cc(NC(=O)c2cc(-c3cccc(OC)c3)n[nH]2)cc(OC)c1 |  | inconclusive: 31.6 µM [signal inhibitor, partial curve]
17 | Cc1nc2ccc(S(=O)(=O)N(CC(=O)Nc3ccc(F)cc3)Cc3ccccc3)cc2s1 | inconclusive: 8.31% [signal inhibitor] | 
18 | COc1ccc(CCNc2ncnc3c2nnn3C)cc1 | inactive: 1.81% | 
19 | N#Cc1c(/N=C/c2cccs2)sc2c1CCCCC2 | inactive: 6.21% | 
20 | CC1CCc2c(sc(NC(=O)CCCOc3ccccc3)c2C(N)=O)C1 (stereo not given) | inconclusive: 8.14% [signal inhibitor] | 
21 | COC(=O)CCn1nnc(-c2ccc(C(C)C)cc2)n1 | inconclusive: 9.37% [signal inhibitor] | 
22 | C[C@@](N)(/C=C\c1ccccc1)C(=O)O | inactive: -0.816% [at 11.4 µM, scaled: untreated 0%, proteasome inhibitor 100%] | 

Row | SMILES | IkBa stabilization activation | Potency
23 | Cc1cc(NC(=O)CCCC(=O)N(CC(=O)NC2CCCCC2)c2ccccc2)no1 | inconclusive: 3.41% [signal inhibitor] | 
24 | CCOC(=O)c1cnc2c(Cl)cc(Cl)cc2c1Nc1ccccc1OC | inconclusive: -1.23% [signal inhibitor] | 
25 | COc1ccc(-c2cn3c(C)c(C(=O)Nc4cc(C)cc(C)c4)sc3n2)cc1 | inconclusive: 2.2% [signal inhibitor] | 
26 | COC(=O)c1ccc(Cn2nnc3c(=O)[nH]c(C4CCCN(S(=O)(=O)c5ccccc5Cl)C4)nc32)cc1 (stereo not given) | inconclusive: 5.12% [signal inhibitor] | 
27 | Cn1c(=O)c2ncn(CC(=O)Nc3ccc4c5c(cccc35)CC4)c2n(C)c1=O | inactive: 6.16% | 
28 | CCCSc1ncc(Cl)c(C(=O)N(Cc2ccc(Cl)cc2)Cc2ccco2)n1 | inconclusive: 0.0903% [signal inhibitor] | 
29 | CCCOC(=O)c1ccc(Oc2cn[nH]c2-c2ccc(OC)cc2O)cc1 | inconclusive: -2.08% [signal inhibitor] | 
30 | Cc1ccc(NC(=O)Cn2nc(N3CCN(c4ccccc4)CC3)ccc2=O)cc1F | inconclusive: 1.86% [signal inhibitor] | 
31 | CCC1CCCCN1S(=O)(=O)c1cc2c3c(c1)CC(=O)N3CCC2 (stereo not given) | inconclusive: 5.01% [signal inhibitor] | 
32 | COc1ccccc1Nc1nc2ccccc2[nH]1 | inactive: 8.55% | 
33 | COc1ccc(S(=O)(=O)N2Cc3ccccc3CC2C(=O)Nc2ccc(C)cc2C)cc1OC (stereo not given) | inconclusive: 2.2% [signal inhibitor] | 
34 | COc1ccc(CNC(=O)c2cc3c(C)nc4ccccc4c3o2)c(OC)c1 |  | inconclusive: 31.6 µM [rising, partial curve]
35 | Cc1nc(N(C)C)c2sc(=S)n(C)c2n1 | inactive: -1.6% | 
36 | N#CC(C(=O)NCc1ccccc1)c1nc2ccccc2nc1N1CCCC1 (stereo not given) | inactive: -0.249% | 
37 | O=C(NCCCN1CCN(c2cccc(Cl)c2)CC1)c1cnn(-c2ccc(F)cc2)c1-n1cccc1 | inactive: 2.62% | 
38 | CCC1=C(c2ccc(C)cc2)S(=O)(=O)N=C1N1CCC(C(=O)NCc2ccc(N(C)C)cc2)CC1 | inconclusive: 1.54% [signal inhibitor] | 
39 | CCN1C(=O)c2ccccc2Sc2ccc(NC(=O)Nc3cccc([N+](=O)[O-])c3C)cc21 | inactive: -1.05% | 
40 | Nc1ncnc2c1ncn2[C@@H]1O[C@@H](COP(=O)(O)OP(=O)(O)OP(=O)(O)OP(=O)(O)OC[C@@H]2O[C@@H](n3cnc4c(N)ncnc43)[C@@H](O)[C@H]2O)[C@H](O)[C@@H]1O | inactive: 1.18% | 
41 | COc1ccc(CNC(=O)c2cnn3c(C)c(Cc4c(F)cccc4Cl)c(C)nc23)cc1 | inconclusive: -0.352% [signal inhibitor] | 
42 | Cc1cccc(N2CCN(C(=O)c3cnc(N4CCCC4)nc3C)CC2)c1C | inconclusive: 4.8% [signal inhibitor] | 
43 | CCCCOc1ccc(C(=O)NCc2nnnn2-c2ccc(C)c(C)c2)cc1 | inconclusive: 1.26% [signal inhibitor] | 
44 | O=C(CS(=O)(=O)c1ccccc1)Nc1nc(-c2ccccc2)cs1 | inactive: -2.32% | 

Row | SMILES | IkBa stabilization activation | Potency
45 | COc1ccccc1NC(=O)CC1C(=O)NCCN1C(=O)Nc1ccc(Cl)c(Cl)c1 (stereo not given) | inconclusive: 5.2% [signal inhibitor] | 
46 | COC(=O)c1c(NC(=O)/C(C#N)=C/c2ccccc2)sc2c1C(C(=O)OC)CC2 (stereo not given) | inconclusive: 2.89% [signal inhibitor] | 
47 | COCC(=O)N1CCC2(CCCN(C(=O)Nc3ccc(OC)cc3)C2)CC1 | inactive: 2.24% [at 11.4 µM, scaled: untreated 0%, proteasome inhibitor 100%] | 
48 | CCOc1ccccc1CNC(=O)c1oc2c(c1C)-c1nn(Cc3cccc(Cl)c3)cc1CC2 | inconclusive: -0.508% [signal inhibitor] | 
49 | Cc1cccc(C(=O)NCc2nc3ccccc3n2Cc2ccccc2Cl)c1 | inconclusive: 1.54% [signal inhibitor] | 
50 | COc1cccc(OCc2nnc(SCC(=O)NCc3ccco3)n2CCc2ccccc2)c1 |  | inconclusive: 25.1 µM [signal inhibitor, partial curve]
51 | O=C(Nc1cccc(OCc2cc(=O)n3ccccc3n2)c1)Nc1cccc(C(F)(F)F)c1 | inconclusive: -1% [signal inhibitor] | 
52 | COc1cccc(NC(=O)Cn2c(=O)n(Cc3ccc(C(=O)NCc4ccc(C)cc4)cc3)c(=O)c3ccccc32)c1 | inconclusive: 3.87% [signal inhibitor] | 
53 | CCOc1ccc(Cn2c(CNS(=O)(=O)c3ccc(C(C)(C)C)cc3)nc3cccnc32)cc1 | inconclusive: 0.538% [signal inhibitor] | 
54 | CCOc1ccc(CNC(=O)C2=Cc3cccc(OC)c3OC2)cc1 | inconclusive: 5.23% [signal inhibitor] | 
55 | O=C(Cc1nc2ccccc2s1)c1ccc(O)cc1O | inconclusive: 0.0624% [signal inhibitor] | 
56 | C=CCC1CCCCC12NC(=O)NC2=O (stereo not given) | inactive: 0.0767% | 
57 | COc1ccc(OC)c(CC2C(=O)Nc3ccc(Br)cc32)c1 (stereo not given) | inconclusive: 0.464% [signal inhibitor] | 
58 | CCOC(=O)c1c(C)oc2ccc(N(C(C)=O)S(=O)(=O)c3c(C)cc(C)cc3C)cc12 | inactive: -3.01% | 
59 | FC(F)(F)c1cc(-c2ccco2)nc(-n2cnc3ccccc32)n1 | inactive: -1.3% | 
60 | Cc1cc(F)ccc1S(=O)(=O)Nc1cc2c(C(=O)O)c(C)oc2c2ccccc12 | inconclusive: 12.3% [signal inhibitor] | 
61 | Cc1cc(N2CCN(c3cc(Cl)ccc3C)CC2)n2nc(-c3ccccc3)nc2n1 | inconclusive: 5.54% [signal inhibitor] | 
62 | O=C(NCc1ccco1)c1cnn2c1NC(c1ccc(Br)cc1)CC2C(F)(F)F (stereo not given) | inconclusive: -3.58% [signal inhibitor] | 
63 | N#Cc1ccc(NC(=O)C2Cc3ccccc3CN2S(=O)(=O)c2ccc(F)cc2)cc1 (stereo not given) | inconclusive: -0.865% [signal inhibitor] | 
64 | O=C(COc1ccc(F)cc1)Nc1ccc2nc(SCCOc3ccccc3)sc2c1 | inactive: -1.54% | 
65 | O=C(Nc1ccccc1C(=O)OCc1cc(=O)n2ccsc2n1)c1ccccc1Cl | inconclusive: 3.21% [signal inhibitor] | 
